# According to paper PMC4336329 (PLoS ONE, 2015):
# Out of some 310,000 compounds screened, about 14,000 (4.5%) showed an effect of 50% or more. Effects have a minus sign here. This is one part of the list.
# Target: human ether-à-go-go-related gene (hERG) potassium channel (human, UniProt Q12809)
# Experiment: primary screen, population patch clamp on CHO cells stably expressing hERG
# 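Further: peak tail current of the secondary pulse compared with the same well before compound.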
# Chain of human ether-à-go-go-related gene (hERG) potassium channel (Q12809 whole entry, looked up): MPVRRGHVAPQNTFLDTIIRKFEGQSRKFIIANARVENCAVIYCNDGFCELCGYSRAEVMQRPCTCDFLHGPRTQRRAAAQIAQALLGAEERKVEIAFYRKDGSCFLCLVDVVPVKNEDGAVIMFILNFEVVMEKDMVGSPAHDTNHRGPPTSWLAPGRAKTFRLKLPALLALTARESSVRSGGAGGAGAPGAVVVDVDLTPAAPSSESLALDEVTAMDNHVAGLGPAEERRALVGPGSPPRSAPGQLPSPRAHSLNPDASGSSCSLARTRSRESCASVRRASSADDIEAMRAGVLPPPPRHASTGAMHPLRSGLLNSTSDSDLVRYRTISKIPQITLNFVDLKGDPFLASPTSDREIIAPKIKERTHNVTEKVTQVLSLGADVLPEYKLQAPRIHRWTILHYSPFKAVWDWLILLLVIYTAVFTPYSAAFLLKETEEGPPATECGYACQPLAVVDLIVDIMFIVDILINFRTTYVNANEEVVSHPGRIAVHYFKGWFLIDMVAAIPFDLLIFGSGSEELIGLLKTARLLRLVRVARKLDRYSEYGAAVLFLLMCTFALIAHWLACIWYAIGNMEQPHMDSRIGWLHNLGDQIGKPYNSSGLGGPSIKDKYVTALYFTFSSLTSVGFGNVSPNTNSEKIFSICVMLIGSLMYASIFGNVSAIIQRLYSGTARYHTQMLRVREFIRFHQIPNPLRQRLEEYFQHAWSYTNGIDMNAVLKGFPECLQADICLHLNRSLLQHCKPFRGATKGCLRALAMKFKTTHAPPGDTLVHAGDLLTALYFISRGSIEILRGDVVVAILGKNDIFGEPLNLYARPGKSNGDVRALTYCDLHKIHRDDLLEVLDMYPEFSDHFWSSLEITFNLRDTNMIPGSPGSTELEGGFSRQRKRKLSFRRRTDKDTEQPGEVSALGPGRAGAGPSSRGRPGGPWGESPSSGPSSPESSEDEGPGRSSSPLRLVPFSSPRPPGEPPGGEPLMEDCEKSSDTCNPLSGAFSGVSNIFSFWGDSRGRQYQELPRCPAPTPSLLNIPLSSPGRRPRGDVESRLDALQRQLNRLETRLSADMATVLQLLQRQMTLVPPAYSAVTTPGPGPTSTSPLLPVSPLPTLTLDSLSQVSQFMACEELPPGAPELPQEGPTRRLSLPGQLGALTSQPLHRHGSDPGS
row,Structure (SMILES),"hERG current change (%, negative = inhibition) at 10uM"
1,Cc1ccc2nc(SC(C)C(=O)Nc3cccc([N+](=O)[O-])c3)[nH]c2c1 (stereo not shown),2.89%
2,CCN(CC(=O)Nc1c(F)cccc1F)C(=O)Cc1ccsc1,-0.0163%
3,CCOc1ccc(CCNC(=O)COC(=O)c2nc(Cl)ccc2Cl)cc1OCC,-17.2%
4,CN(C)S(=O)(=O)c1cccc(NC(=O)CSc2nc3c(cc2C#N)C(=O)CC(C)(C)C3)c1,-34.7%
5,COc1ccc(CNC(=O)Cn2ncn3c(cc4ccccc43)c2=O)cc1,-8.37%
6,O=C(Cn1cnc2cc([N+](=O)[O-])ccc2c1=O)NCCc1ccc(Cl)cc1,-21.3%
7,Cn1c(CC(=O)Nc2ccccc2F)nnc1SCC(=O)Nc1nccs1,18.6%
8,CCn1c(O)c(N=NC(=S)NCC2CCCO2)c2ccccc21 (stereo not shown),18.5%
9,COCCN(C(=O)c1cc(Cl)nc2ccccc12)c1c(N)n(Cc2ccccc2)c(=O)[nH]c1=O,15.4%
10,CC(C)(C)c1ccc(C(=O)Nn2cnnc2)cc1,19.4%
11,O=C(CSc1ccc(C(F)(F)F)cc1[N+](=O)[O-])N1CCOCC1,-6.11%
12,CCN(CC(=O)Nc1c(F)cccc1F)C(=O)c1cccc(-n2cccc2)c1,-27.1%
13,O=C(c1ccco1)[C@@H]1[C@@H]2C(=O)N(c3ccccc3)C(=O)[C@@H]2C2c3ccccc3C=CN21 (stereo partly shown),9.72%
14,CC(=O)NC(C(=O)N1CCC(c2nc3ccccc3s2)CC1)C(C)C (stereo not shown),9.84%
15,COc1ccccc1NNC(=O)C(O)(c1ccccc1OC)c1ccccc1OC,20.2%
16,CN=C1SC(CC(=O)Nc2ccc(F)cc2F)C(=O)N1/N=C(\C)c1cccc(OCC(=O)O)c1 (stereo not shown),-25.1%
17,CCn1ncc(CN2CCN(Cc3cccc(OC)c3)C(CCO)C2)c1C (stereo not shown),7.07%
18,CCCCNC(=S)Nc1ccc([N+](=O)[O-])cc1,-10.2%
19,CCC1CCCCN1CCN1C(=O)C2C(C(=O)Nc3ccc(OC)cc3)C3C=CC2(O3)C1C(=O)NC1CCCCC1 (stereo not shown),2.92%
20,CC1CCC(NC(=O)C2c3ccccc3C(=O)N2Cc2cccs2)CC1 (stereo not shown),-23.6%
21,CN(CCOc1ccccc1)C(=O)c1ccc(F)c(S(=O)(=O)N2CCOCC2)c1,-10.8%
22,Cc1cc(C)nc(N/N=C/c2sccc2C)n1,7.56%

row,Structure (SMILES),"hERG current change (%, negative = inhibition) at 10uM"
1,COc1ccc(/C=N/NC(=O)C[n+]2ccccc2)c(OC)c1.[Cl-],12%
2,Cc1cccc2c1N(CC(=O)OC(C)C)C(=O)C2=O,13.2%
3,O=S(=O)(c1ccccc1Cl)N1CCCC1c1nc(-c2cccc(Cl)c2)no1 (stereo not shown),-9.49%
4,O=C(O)c1ccccc1N(Cc1ccccc1)C(=O)CO/N=C/c1ccccc1,2.87%
5,O=[N+]([O-])c1ccc(-n2nnnc2-c2ccccc2)c([N+](=O)[O-])c1,6.9%
6,CCCCC(=O)Nc1cccc(-c2nn3c(C)nnc3s2)c1,-2.41%
7,CN(C(=O)COC(=O)Cc1c(Cl)cccc1Cl)C1CCS(=O)(=O)C1 (stereo not shown),-0.343%
8,CC1CN(C(=O)c2ccncc2)CC(C)O1 (stereo not shown),12%
9,CC(=O)N1CCN(C(=O)CCc2nc3ccccc3c(=O)[nH]2)CC1,2.7%
10,CCc1c(O)nc(SC2CC(=O)N(c3ccc(F)c(Cl)c3)C2=O)[nH]c1=O (stereo not shown),1.38%
11,CC1CCCCC1NC(=O)COC(=O)COc1ccc(Cl)cc1 (stereo not shown),-9.17%
12,CCOc1cc(N2CCOCC2)c(OCC)cc1NC(=O)c1ccc(OCc2c(C)noc2C)c(OC)c1,15.9%
13,COc1ccc(CNC(=O)/C(C)=C\C(=O)O)cc1,22.4%
14,Cc1cccc(OCC(=O)NCCNC(=O)c2ccccn2)c1,16.8%
15,O=C(Nc1nc2c(Br)cc(Br)cc2c(=O)s1)C1CCC1,10.8%
16,O=C(NCc1ccco1)c1ccc(COc2ccc(Cl)cc2)cc1,0.911%
17,CN(C)S(=O)(=O)c1ccc(C(=O)Nc2ccccc2F)cc1,-12.3%
18,Cc1ccc(S(=O)(=O)NC(=O)N2CCCC(C)(C)C2)cc1,8.82%
19,O=C(CN1CC=C(c2ccccc2)CC1)NC(=O)NC1CCCCC1,-10.6%
20,Cc1ccc(NC(=O)c2nc[nH]c2C(=O)N[C@@H](CCCCNC(=O)OC(C)(C)C)C(=O)OC(C)(C)C)cc1,-2.43%
21,Cc1cc(/C=C2\SC(=O)N(C)C2=O)c(C)n1-c1ccc(S(N)(=O)=O)cc1,13.3%
22,CCOc1ccc(/C=N/Nc2nc(N3CCCC3)nc(N3CCCC3)n2)cc1OC,-12%

row,Structure (SMILES),"hERG current change (%, negative = inhibition) at 10uM"
1,CCCCNC(=O)c1cc(-c2ccc(F)cc2)on1,-16.4%
2,COc1ccc(NC(=O)CCN2CCN(C/C=C/c3ccccc3)CC2)cc1,-77.3%
3,COc1ccc(/C=N/Nc2nc3ccccc3[nH]2)c(OC)c1OC,5.99%
4,Cc1ccc(C(=O)NCC(=O)Nc2ccccc2C(F)(F)F)cc1,13.1%
5,COc1ccc(NC(=O)N2CCCC2C(=O)NCc2ccccc2Cl)cc1 (stereo not shown),-4.77%
6,O=C(CCSc1ccccn1)c1ccccc1,8.82%
7,COc1ccc(N(CC(=O)NCc2ccc(F)cc2)S(=O)(=O)c2c(C)n[nH]c2C)cc1,-26.5%
8,CCOc1ccc(NC(=O)CN2CCN(CC(=O)Nc3ccc(C(=O)OC)cc3)CC2)cc1,-66.2%
9,CCSc1nnc(NC(=O)c2ccc(C)cc2)s1,-0.642%
10,CC(C)NCCCCOc1ccc(Br)cc1Cl.O=C(O)C(=O)O,-64.6%
11,CC1Cc2cc(S(=O)(=O)NCCC(=O)NCc3ccc(F)cc3)ccc2N1C(=O)C1CC1 (stereo not shown),-4.19%
12,COCC1CCCCN1C(=O)C1CCN(c2nc(-c3ccccc3)nc3c2CCC3)CC1 (stereo not shown),-29.2%
13,COc1cc(O)c(C(CCN2CCCC2)c2ccc(N(C)C)cc2)c(OC)c1 (stereo not shown),-10%
14,Cc1cccc(NC(=O)Nc2ccccc2[N+](=O)[O-])n1,16.7%
15,COc1cc(/C=N/NC(=O)C2=NNC(=O)C2C)ccc1O (stereo not shown),15.2%
16,CCOc1ccccc1N(CC(=O)NC1CCCC1)S(=O)(=O)c1ccc(C)cc1,-22.5%
17,CCNC(=S)N(CCN(C)C)Cc1cc2cc3c(cc2[nH]c1=O)OCO3,6.97%
18,O/N=C/c1cc(Br)ccc1OCc1cccc(F)c1,-0.542%
19,COc1ccc(N(CN2C(=O)c3ccccc3C2=O)C(=O)COc2ccc(Cl)cc2Cl)cc1,18.3%
20,CC(C)CN(C(=O)CCc1ccccc1Cl)c1c(N)n(Cc2ccccc2)c(=O)[nH]c1=O,-16.4%
21,Cc1cc(C)c(S(=O)(=O)N2CCN(C(=O)c3cc(=O)[nH]c4ccccc34)CC2)c(C)c1,-32.5%
22,CC(=O)c1cccc(NC(=S)NC(=O)c2ccc(Br)cc2)c1,2.1%

row,Structure (SMILES),"hERG current change (%, negative = inhibition) at 10uM"
1,Cc1n[nH]c(=S)n1-c1ccc(Cl)cc1,17.5%
2,O=C(COc1coc(CN2CCN(c3ccc(F)cc3)CC2)cc1=O)Nc1ccccc1,11.1%
3,CS(=O)(=O)N(CC(=O)N1CCCCCC1)Cc1ccc(Cl)cc1,-7.82%
4,CCCCCP(=O)(O)c1ccccc1,0.253%
5,Cc1nn(C)c(C)c1C1Nc2ccccc2C(=O)N1O (stereo not shown),8.27%
6,O=C(CCN1CCCCC1)NNC(=S)NC(=O)c1ccc(Br)cc1,10.3%
7,O=C(CCCN1C(=O)/C(=C/c2cccs2)SC1=S)NNC(=O)c1cccnc1,17.2%
8,CCCCOc1ccc(C(=O)NC(=S)Nc2ccc(CN3CCOCC3)cc2)cc1,4.51%
9,Cc1cccc(-c2nnnn2-c2cccc(C)c2)c1,-2.26%
10,COc1ccc(NC(=O)CSc2nc3ccccc3c(=O)n2-c2ccc3c(c2)OCO3)c(OC)c1,-9.39%
11,O=C(NCCC1=CCCCC1)C1CCCN(S(=O)(=O)c2ccccc2)C1 (stereo not shown),6.97%
12,Cc1nc(N)sc1C(=O)Nc1ccccc1.Cl,11.1%
13,O=c1cc(Nc2cccc(Br)c2)[nH]c(=O)[nH]1,-11.5%
14,CCOC(=O)N1CCN(C(=O)c2ccc(CS(=O)(=O)c3c(Cl)cccc3Cl)o2)CC1,-13.9%
15,CC1(C)CC(=O)C2=C(C1)OC1OC(=O)CC21C (stereo not shown),6.77%
16,CCOC(=O)C1(C)NC(c2ccc(OC)cc2OC)C2C(=O)N(c3cccc(OC)c3)C(=O)C21 (stereo not shown),8.78%
17,O=C(C1Cc2ccccc2CN1S(=O)(=O)c1ccc(F)cc1)N1CCOCC1 (stereo not shown),-18%
18,CCCCc1nc(C(N)=O)c2[nH]c(=O)n(-c3ccc(OC)c(OC)c3)c2n1,10.7%
19,Cc1ccccc1C(=O)Nc1cccc(N)c1,-1.8%
20,O=C(NCc1ccccn1)Nc1ccccc1Cl,25%
21,CCOC(=O)c1ccc(NC(=S)N(CCCN2CCCC(C)C2)Cc2cccs2)cc1 (stereo not shown),-76.3%
22,CCN1CCN(CC(O)COc2ccc3c(C)cc(=O)oc3c2)CC1.Cl (stereo not shown),-0.83%
